Experimental data as given in the RNAGym collection of RNA variant scans (doi:10.1093/nar/gkz1192).
Read counts are not given, so values of variants with three or more changes are uncertain.

B1: CPEB3 Ribozyme (parent)
chain: UAACAGGGGGCCACAGCAGAAGCGUUCACGUCGCAGCCCCUGUCAGAUUCUGGUGAAUCUGCGAAUUCUGCUGUAUAUCUC

Variants of: B1
Assay: self-cleavage, relative activity (ratio to wild type); higher = more cleavage; in vitro, sequencing
Procedure, shortened: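 CPEB3 self-cleaving ribozyme mutant libraries were made by rounds of error-prone PCR, barcoded, and transcribed in vitro with T7 RNA polymerase for 5 hours at 37°C. Cleavage occurred during transcription and a 15 min DNase I step before EDTA stop. RNAs were reverse transcribed with template switching and Illumina-sequenced, with DNA sequencing mapping barcodes to variants. Relative activity is the variant's cleaved/total read fraction divided by wild type's (minimum 5 reads), averaged across three batches.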
Variant G6U A18U U26C has a self-cleavage of 0.09.
G6U A64G U76C showed a self-cleavage of 0.31.
Variant G7U A15U U31C G36A has a self-cleavage of 0.07.
For G7U A13U G22C U41A G73U, the self-cleavage was 0.04.
With G7C A35U U41C U51C the self-cleavage was 0.07.
With G7A U41C G70A the self-cleavage was 0.24.
For G7A U43C A45U U69A U80A, the self-cleavage was 0.05.
For G7A A35U U41A G46C U54C A77C, the self-cleavage was 0.05.
Work on G7U A45G G61U G70A U74A yielded a self-cleavage of 0.11.
G6U A18G C71G U78C gave a self-cleavage of 0.08.
G6U U26C A65U showed a self-cleavage of 0.2.
Work on G6U U41C A64U U66C yielded a self-cleavage of 0.14.
In the case of G7A U25C A28U U60C U67C A77U, the self-cleavage is reported as 0.04.
For G7A A15U A18G U60C G70A, the self-cleavage was 0.05.
For G7A A13G U25A U67A, the self-cleavage was 0.13.
In the case of G7C A57G U66A, the self-cleavage is reported as 0.14.
In the case of G7A A28G U66C A75G, the self-cleavage is reported as 0.06.
G7U A18U A21G U41A U58C U66C U78A gave a self-cleavage of 0.03.
Variant G6U A56U A57G A64G has a self-cleavage of 0.07.
With G7A A20U A35U the self-cleavage was 0.17.
Work on G7C U43A U51C yielded a self-cleavage of 0.06.
G7A G9A U48C U54C U60C gave a self-cleavage of 0.04.
In the case of G7U A47G A57G, the self-cleavage is reported as 0.08.
With G7C U31C A56G A64C U69C the self-cleavage was 0.07.
For G6U U60A U72C U80C, the self-cleavage was 0.33.
Work on G7U A57G U67A yielded a self-cleavage of 0.18.
Variant G7U A20U C62U has a self-cleavage of 0.04.
G7A A18G C29U A75G showed a self-cleavage of 0.06.
G7U A13G A20C A35U gave a self-cleavage of 0.07.
With G7A G9U C37G G63U the self-cleavage was 0.22.
With G6U U48C U72A the self-cleavage was 0.27.
In the case of G6U G9U U51A, the self-cleavage is reported as 0.22.
For G7A A15G A28U A45U U49A, the self-cleavage was 0.06.
Variant G7C U25C A57U has a self-cleavage of 0.22.
In the case of G7A A21G C38U U51C U78C, the self-cleavage is reported as 0.33.
Work on G6U A15U C32G C37A U67C U72C yielded a self-cleavage of 0.03.
For G6U A57C A64G U66A, the self-cleavage was 0.04.
G7C A18G U41A A65U showed a self-cleavage of 0.06.
Work on G7A U48C C62G A75G C79A yielded a self-cleavage of 0.08.
With G7C U54C A75G the self-cleavage was 0.23.
For G7U A18U G19C U49C U54G A65G U72C, the self-cleavage was 0.16.
Work on G7A U41C U60C G70C U76C yielded a self-cleavage of 0.05.
Work on G6U A28G U51C A64G U72C yielded a self-cleavage of 0.09.
G7A A15G A35G U41C U48C gave a self-cleavage of 0.06.
G7C U43A U60A A64U gave a self-cleavage of 0.13.
G7U A13U A75U U80C gave a self-cleavage of 0.19.
Variant G7A A15U U41A U51A has a self-cleavage of 0.18.
G6U U48C U49C U60C gave a self-cleavage of 0.23.
In the case of G7A A21G C32G U60C C62U A65G U66C, the self-cleavage is reported as 0.02.
G6U U49G A65G U67C G73A gave a self-cleavage of 0.06.
Work on G7U A13C A35G A47G yielded a self-cleavage of 0.11.
For G7C U25C A56G U72A, the self-cleavage was 0.08.
In the case of G7A A20G U48A A56C G70A, the self-cleavage is reported as 0.04.
G7U A18G U26A gave a self-cleavage of 0.07.
For G7C C14U G33C C38A U72A, the self-cleavage was 0.04.
Work on G7A C27U A64G U80C yielded a self-cleavage of 0.07.
For G7C U25C U41C U43C A65G U80A, the self-cleavage was 0.05.
In the case of G7C C23U U51A A77U, the self-cleavage is reported as 0.27.
With G7A A35U A56G U58C G61A the self-cleavage was 0.1.
In the case of G7U A21G A45G U78C, the self-cleavage is reported as 0.14.
Work on G7C A35C C68A yielded a self-cleavage of 0.02.
For G6U A20U U26C U54C, the self-cleavage was 0.26.
G7C U69C U72C U78C gave a self-cleavage of 0.08.
Variant G7A U25A U31C G33A U51C has a self-cleavage of 0.05.
With G7A G52A U80C the self-cleavage was 0.1.
G6U A18U A35U U60C gave a self-cleavage of 0.07.
G6U A35U U41C showed a self-cleavage of 0.19.
With G7A A57G U80C the self-cleavage was 0.07.
G7C A35G U49A A64G gave a self-cleavage of 0.06.
G7C U41A U69C gave a self-cleavage of 0.04.
With G7A A15G A28U U41A the self-cleavage was 0.07.
For G7U A18G U26C A28G G33C, the self-cleavage was 0.47.
Work on G7A C29A U48C U60C yielded a self-cleavage of 0.17.
G6U A47G U48C gave a self-cleavage of 0.05.
G7A A15U U25C U41C G63U U72A gave a self-cleavage of 0.14.
In the case of G7U A15G U25C U26C G63U C81U, the self-cleavage is reported as 0.18.
Variant G7A U26A A35U U43A has a self-cleavage of 0.12.
Variant G7A A15G C37G U51C U78C has a self-cleavage of 0.04.
In the case of G7U A13C A21G U41C A56G U80C, the self-cleavage is reported as 0.06.
In the case of G6U G63C U67C, the self-cleavage is reported as 0.15.
Work on G7A A13U A15G A20G U25C A57G U78C yielded a self-cleavage of 0.13.
For G7A A20G U31A A64U U72A, the self-cleavage was 0.04.
Work on G7C G10C A13C U26C U54A U60C yielded a self-cleavage of 0.54.
In the case of G7A U25C U41C A64G U78A, the self-cleavage is reported as 0.2.
G7C A18G U25C showed a self-cleavage of 0.41.
With G7U A45G A64G the self-cleavage was 0.05.
Variant G7A A18G U31A A35G U48C U51A has a self-cleavage of 0.11.
G7C A18U A57C U58G U69C showed a self-cleavage of 0.06.
G6U A21G U48C A56G U60C A64G U69C gave a self-cleavage of 0.07.
G7A C44U A57U A65G U74C showed a self-cleavage of 0.11.
For G7A U31C A47U U78C, the self-cleavage was 0.18.
Variant G6U U43C U51A U54C U80C has a self-cleavage of 0.16.
G7U A45U U60A U66C showed a self-cleavage of 0.05.
G7A U66C U72C gave a self-cleavage of 0.06.
With G7C A13U A56G U58G A65G the self-cleavage was 0.29.
Work on G7U A18G C29A C32U U43A yielded a self-cleavage of 0.33.
With G7U A28G A47G the self-cleavage was 0.21.
G7A A28G U69C gave a self-cleavage of 0.05.
Work on G7A G16A A47U U80C yielded a self-cleavage of 0.06.
With G6U A20G U54C A64G U67A the self-cleavage was 0.37.
For G6U G9U A20G U66A U72C, the self-cleavage was 0.05.
Work on G7A C12U G70C yielded a self-cleavage of 0.07.
In the case of G7A G8A A18U U80C, the self-cleavage is reported as 0.07.
Variant G7A A13G A28G has a self-cleavage of 0.07.
G6U A28G A47U C62A showed a self-cleavage of 0.18.
G7A U26C A47U G61A A64G C68U U72A gave a self-cleavage of 0.06.
In the case of G7A A18G A21U C38A U43C U51A, the self-cleavage is reported as 0.04.
With G6U A20U A21G G46U A57U U72C U80C the self-cleavage was 0.04.
Variant G7U A13C A21U U54C A56G U67C has a self-cleavage of 0.12.
Variant G7U A13U A15C A20U U26C U74A A75G has a self-cleavage of 0.05.
Work on G7A C27A A64G C79U yielded a self-cleavage of 0.
In the case of G6U A56G A65G, the self-cleavage is reported as 0.18.
With G7C U31C A35U A64G the self-cleavage was 0.17.
G6U A35G A65G showed a self-cleavage of 0.18.
For G7A A13G U51C U54A C79G, the self-cleavage was 0.51.
For G7C C11A C17U A18G C29U A45G, the self-cleavage was 0.06.
Work on G7A U31C U58C U69C yielded a self-cleavage of 0.05.
In the case of G6U A64G U69C, the self-cleavage is reported as 0.17.
In the case of G7A A18G A28U U78C, the self-cleavage is reported as 0.18.
Variant G7A A45C U58C U78C has a self-cleavage of 0.03.
In the case of G7A A28G A35U U60C, the self-cleavage is reported as 0.06.
For G7C C17U U51A, the self-cleavage was 0.47.
With G6U G42A U54C U69C the self-cleavage was 0.19.
In the case of G7A U26C U69C U74C U78A, the self-cleavage is reported as 0.19.
G7A A64G U76C A77G gave a self-cleavage of 0.15.
Variant G7U A15G G53U has a self-cleavage of 0.08.
For G6U A15U A18G U26A U80C, the self-cleavage was 0.06.
In the case of G7A A18C G33A A35U, the self-cleavage is reported as 0.1.
G7A U43A U60A U69C U74A showed a self-cleavage of 0.07.
With G6U U58C U60C U69A U80C the self-cleavage was 0.04.
In the case of G6U A20U A57G, the self-cleavage is reported as 0.16.
Work on G6U A47G U51C U66C yielded a self-cleavage of 0.04.
G7A U25A A64G A65G U74A gave a self-cleavage of 0.05.
Work on G7C G10C A64U U76C yielded a self-cleavage of 0.04.
For G7C G53C G61U U80C, the self-cleavage was 0.19.
G7A A15G A28G gave a self-cleavage of 0.34.
G7C U31A U43C U49C U54C A75G showed a self-cleavage of 0.05.
With G7C U72C U76A the self-cleavage was 0.03.
With G7A U41C U67C the self-cleavage was 0.12.
Variant G6U U48A A64U has a self-cleavage of 0.1.
For G7U A57G U78C, the self-cleavage was 0.24.
With G6U C23A G30U U31C C40A the self-cleavage was 0.12.
G7C U25C A28G U51A U74C gave a self-cleavage of 0.06.
With G7U A47G U58C the self-cleavage was 0.26.
G7A G9A G42A A45G U54C A65U showed a self-cleavage of 0.1.
For G7A A13U U60G U74A, the self-cleavage was 0.06.
For G7A U67A U69C, the self-cleavage was 0.13.
G7C A13U A47G U72A gave a self-cleavage of 0.23.
With G6U U31A G33U A77G the self-cleavage was 0.08.
G6U A18G U80C gave a self-cleavage of 0.39.
For G7A G8A A64G, the self-cleavage was 0.24.
G7A U43A A45G U72C gave a self-cleavage of 0.09.
G6U U31C A65G gave a self-cleavage of 0.04.
Work on G7A A35U U54C U74A yielded a self-cleavage of 0.07.
G7A U41A A64U showed a self-cleavage of 0.25.
With G7A G9A G42A U54C A65U U66C the self-cleavage was 0.08.
For G7U A15G A20G U25A A28U A56G, the self-cleavage was 0.26.
Work on G7A U31G A56G U69C yielded a self-cleavage of 0.06.
G6U G8U A20G A21G U80C gave a self-cleavage of 0.41.
For G7A A18G C29U U54A, the self-cleavage was 0.06.
For G6U U74C U78C, the self-cleavage was 0.46.
G7A A35C U41C A64G U67C U72C U80C showed a self-cleavage of 0.04.
Variant G7C C12U A20G G61C U72C has a self-cleavage of 0.03.
Variant G7U A47G U48C U49C U60A U78C has a self-cleavage of 0.13.
With G6U A47G U60A U80C the self-cleavage was 0.09.
G7A C17U U31G showed a self-cleavage of 0.06.
For G7A A13U U41C U51A U74C U80G, the self-cleavage was 0.11.
